Here are results for 22 molecules from article PMC12136788.

This is one part of the list.

The chains are these.
T1: UNK ZnF1-3 (human, UniProt Q9C0B0 31-174)
T1 sequence: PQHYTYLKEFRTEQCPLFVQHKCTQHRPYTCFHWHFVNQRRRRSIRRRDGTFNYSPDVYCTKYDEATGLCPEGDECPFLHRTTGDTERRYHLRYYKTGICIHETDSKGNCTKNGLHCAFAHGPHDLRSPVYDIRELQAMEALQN

B1: 33255743_33255984_918_CDS_ENSG00000227057_ENST00000374617|human|control|control (ssRNA)
RNA: GGGAGUUCUACAGUCCGACGAUCUCCAGUUCGAGAGUAGUUUAGUCUGUAGGGUCCAAACUGCCGCAGAUUCAAGUCAAAGUGCUUGGCUGCACUUGCAAUGUCCACAGCCUCCACAAUGUCAGCCUGGCAUAUCUUUGCUGUCAACAGAGGAUUGAGCAUCA
B2: chr5:110834802:110834803:-_ENSG00000164211_ENST00000296632|hu_hu|motif|central (ssRNA)
RNA: GGGAGUUCUACAGUCCGACGAUCUUACCCAUAUUAACAACAACAAAACAGUAGACACAGGAAUACUAACACAUAAACAACGGACAUUAAACACGGAAAUGGAUUUCGAGAUGUGUGCAUGUACACAAAAAAAUAUAUACAAAGCAACAGAGGAUUGAGCAUCA
B3: chr1:21151686:21151687:-_ENSG00000075151_ENST00000400422|hu_hu|FALSE|FALSE (ssRNA)
RNA: GGGAGUUCUACAGUCCGACGAUCUAAAAAGUCCUUCCAGCUGAGGUCAGCCUCCCUCCAUAAGGCUCCCACUUUCUUAUGGCUCAUUUGUUUGCAUAGUAGGUGCAAUAUUUCAGAUAGCAAGACCCCAGCUCUUCCAACAGGCAACAGAGGAUUGAGCAUCA
B4: chr15:68825492:68825493:+_ENSMUSG00000022332_ENSMUST00000022954|mus_hu|motif|central (ssRNA)
RNA: GGGAGUUCUACAGUCCGACGAUCAAUCACCACAUCGAUGUACUUUUCUUCAUCCUUGCCUUCUCCUUUUUGAAACUUUUCGGUUUCUUGGUUCACCAGGCGCAGGGCGUGCGUGAAGGAGGGGUCCAGGGAGUCCUUCUCCGCCAACAGAGGAUUGAGCAUCA
B5: chr19:42637464:42637465:+_ENSMUSG00000025184_ENSMUST00000026188|mus_mus|motif|central (ssRNA)
RNA: GGGAGUUCUACAGUCCGACGAUCAGUCUGAACUUCCCAACAGUCCAUGUCCUUUGGUUUAAAAAGUCUUUGUAAAGGUAUACGGGAUACAAUCCCAGCGUCGGGAGCUCUGUGUUGAUGUUCUUGGGAUGAGGCUUCUGUGGACAACAGAGGAUUGAGCAUCA
B6: chr16:94690093:94690094:+_ENSMUSG00000040785_ENSMUST00000117648|mus_hu|mus_mus_mus_hu_True|18_58 (ssRNA)
RNA: GGGAGUUCUACAGUCCGACGAUCGGGCUGGGAUGACGGACACACAGCCUCGAUUCCAGGGGGAAAAAGUCUUAGUCAAUACUAAUUAAAAAGUGUUAAUGAUUUUUGAAAAUCAGAUGUAGAUUAAAAAAGAUGAAAAGCAAACAACAGAGGAUUGAGCAUCA
B7: chr14:103803487:103803488:+_ENSG00000100664_ENST00000558506|hu_mus|hu_hu_hu_mus_True|8_8 (ssRNA)
RNA: GGGAGUUCUACAGUCCGACGAUCGAGUUUAUGAUGUGUGUCAAGCAUGCCUCGGUACCCACAGGCUUUACAAGAAUUACCUAUUGUUUGCUUCUUUGGAUUGACAUGCAGAUCUGUUUCAGGAUUCUCACAUUCAGGACAGAGCAACAGAGGAUUGAGCAUCA
B8: 174000111_174000231_1397_CDS_ENSMUSG00000003458_ENSMUST00000003550|mouse|control|control (ssRNA)
RNA: GGGAGUUCUACAGUCCGACGAUCGUGGAAGGAGCCAGAGUGGUCAGCCAGGACCACGCCAGAGAUGUUUCGAGCCCGAAGAAAUCGUUGUAGAGACGAAGGUGGAAGGGCCUGGGACUGGGCCAGUCUCCUCAGGACAACUUCCAACAGAGGAUUGAGCAUCA
B9: chr7:54825262:54825263:-_ENSG00000132432_ENST00000352861|hu_hu|hu_hu_hu_mus_False|28_78 (ssRNA)
RNA: GGGAGUUCUACAGUCCGACGAUCCUGCCGGCUGGGCUCCACAAACUGCAUUACCUGCAUGACUGCCGUUGGAUGGCGGAUUGAGAGCGUAGAGACACGUAGCUCAGGGAGCUUGCUAGCCCAACGGAACCGGAAGCUGGCAACCAACAGAGGAUUGAGCAUCA
B10: chr13:36158134:36158135:+_ENSG00000172915_ENST00000537702|hu_hu|FALSE|FALSE (ssRNA)
RNA: GGGAGUUCUACAGUCCGACGAUCGGUUGUGAAAGGUUCAAUUCGAACAAGCCAGGAUAAAGUAGAUGUUGCUGUUGAAUAAUGGGUAUUAUAAUGGUAGGGUGGGCUUUGAUCAUCUUCCCAUGUCUCAUAACGCUCUGCAUACAACAGAGGAUUGAGCAUCA
B11: chr9:14812383:14812384:-_ENSMUSG00000031934_ENSMUST00000164273|mus_mus|mus_mus_mus_hu_True|1_1 (ssRNA)
RNA: GGGAGUUCUACAGUCCGACGAUCAUAGCCCAGGUAGAUACACGCUAACAGUAUAAUGAUGAGUGUCAGCAGGCGGCAGCUAAUGUACUUGAUGAUUAAAUUAUUAGAAUUUUUCUUUGUCUUCAAGUACUGCUCCACGAUUGGCAACAGAGGAUUGAGCAUCA
B12: chr19:36966019:36966020:+_ENSMUSG00000024811_ENSMUST00000025729|mus_mus|FALSE|FALSE (ssRNA)
RNA: GGGAGUUCUACAGUCCGACGAUCAGCAAGACCCAGAGCUUAAGGCCAUUGAAGAUCUUCUCUAGCCACAAGUCCCCAUCACGUCACACCAGAGCUCUCUGGGAUGUGUGCCUUCUAGACACAAAGGCAUCACCAAUUAAAUUCCAACAGAGGAUUGAGCAUCA
B13: chr2:119558892:119558893:+_ENSMUSG00000027304_ENSMUST00000028767|mus_mus|FALSE|FALSE (ssRNA)
RNA: GGGAGUUCUACAGUCCGACGAUCGCAAGAACCCCACAGCUCCACGGUAAUACUGAGUGUGCUGAGUGGCGGGACUGUGCUAGUUACAAACCAGAAGCAGGCGGGAGGGCAAACACAAACCUAAAGAGAAGAAGCCCCAUCCAACAACAGAGGAUUGAGCAUCA
B14: chr4:17845017:17845018:+_ENSG00000109805_ENST00000514176|hu_mus|hu_hu_hu_mus_False|38_48 (ssRNA)
RNA: GGGAGUUCUACAGUCCGACGAUCGCUCUCUUAACUUGUAUCUUCAUUAAGGAACUCUGCAAGGUUAAGUUUACUUUUCUGUAGCGCGCGGUUUUGGCUCGUCUUGGGUAAUCUCAUCUUCAUUUCUGAUGGUGGUUCAUGAUCCAACAGAGGAUUGAGCAUCA
B15: chr11:76780297:76780298:+_ENSMUSG00000020840_ENSMUST00000021197|mus_mus|FALSE|FALSE (ssRNA)
RNA: GGGAGUUCUACAGUCCGACGAUCGAAGUCAAUGGGCUGGUUGUUAUACAGCGUUUUUCUCCCUCCAACCAUAUUGCUCAAGUAGUCUACUGUGUACAAUUUAUUGUACUUGUGCUGGGGCCGUGGGUCAUUCACAAAACAAAUCAACAGAGGAUUGAGCAUCA
B16: chr3:148802587:148802588:-_ENSG00000071794_ENST00000310053|hu_mus|hu_hu_hu_mus_False|1_68 (ssRNA)
RNA: GGGAGUUCUACAGUCCGACGAUCUCCAACAACUUGUCCUCUCAUAGUUCCAAAUAAAACCAAAUCUACUUCUUCAUCACUCGUUAGGAAGUCAUCUGGAGGAAUAAUGUCUUGGAAUUCAAAAUGUGGCAAGAAAGUUGGAUACAACAGAGGAUUGAGCAUCA
B17: chr3:87734452:87734453:+_ENSMUSG00000048039_ENSMUST00000055984|mus_mus|FALSE|FALSE (ssRNA)
RNA: GGGAGUUCUACAGUCCGACGAUCUCGCAAGCGUCCGAAGCCGGAUGCAGGCGCAGGCGCGCGCCGACGUAUGCCGGGACGGCAAGAACGCGGGCGACAACGGGAAGGCGGCCGGCGCGCACGCGCCCGCAGCGCCCCCACCUCCAACAGAGGAUUGAGCAUCA
B18: chrX:102632674:102632675:+_ENSG00000166681_ENST00000361298|hu_mus|FALSE|FALSE (ssRNA)
RNA: GGGAGUUCUACAGUCCGACGAUCGUGGUUAGACAGCUCCCCCAUAAGGAUGCGUAGACAAUUUCUCAGCUGUAGCUCCCUAAGCUUUCUCCGGAUCUCUCUCAUCUCCUCCAUGAACAUUUCCAUAUCAUCUCCAUCUCCACCCAACAGAGGAUUGAGCAUCA
B19: chrX:160355682:160355683:+_ENSMUSG00000031367_ENSMUST00000069041|mus_mus|FALSE|FALSE (ssRNA)
RNA: GGGAGUUCUACAGUCCGACGAUCGACAUUUUUCUUGGAUGUUUCCUGAACUUCUCCUCCCAAGAGAAAUUCAUCCAAAAUAAAAUAGGCCUUCUCAAAAUUAAAGAUGAUAUCAAGUUCACAUACACUGCCAAAAUACUUGUCCAACAGAGGAUUGAGCAUCA
B20: chr1:244855233:244855234:+_ENSG00000121644_ENST00000302550|hu_mus|hu_hu_hu_mus_True|88_98 (ssRNA)
RNA: GGGAGUUCUACAGUCCGACGAUCCAUCAGAUGGUAGGCAUUGCCUUUGUAUUCUUUCCCCAGUUCUUCUACAAUUUUCUCUAUAUCAUCUUCUAGAAAGUCCGUACUUCCUAGAACAACAGCUUCUUUAAAUUUAAAUGUUUCCAACAGAGGAUUGAGCAUCA
B21: chr8:72619372:72619373:-_ENSMUSG00000002341_ENSMUST00000002412|mus_mus|FALSE|FALSE (ssRNA)
RNA: GGGAGUUCUACAGUCCGACGAUCAAUAAAACCAAAGAAGGCUGGGCAGACAGUUCGCUGAGUUCCAGGUUAGCCUGGUCUAUAUAGCAAGUUCCAGGCCAGCCAGGGCCGCACAGUGAGGCCCUGUCUCAAAACAAAAACAACCAACAGAGGAUUGAGCAUCA
B22: chr11:78564483:78564484:-_ENSMUSG00000049489_ENSMUST00000059468|mus_mus|FALSE|FALSE (ssRNA)
RNA: GGGAGUUCUACAGUCCGACGAUCAAUCUGAAUGAGAUCAGACACAAUAUUGUCAAUGAUUGGCUUGGUAAGGUCAUCACUAAAUACCUGCCACCAAGGCUUCUCGGCCUCACCCUCUGCAGGCACCUCGACUCCAUAGACCUGCAACAGAGGAUUGAGCAUCA

This assay addresses T1, UNK ZnF1-3. The assay is described as follows: nsRBNS (natural sequence RNA bind-n-seq); RBNS binding buffer (assumed for nsRBNS): 25 mM Tris pH 7.5, 150 mM KCl, 3 mM MgCl2, 0.01% Triton X-100, 500 ug/ml BSA, 20 U/ml SUPERase-In, 4 C; UNK is unkempt and MSI1 is Musashi-1; names of the RNAs are library labels; protein concentration not given here; high values mean tight binding.
B1 came in with a binding signal of 0.835 enrichment R.
In turn, B2 had a binding signal of 1.63 enrichment R.
The figure for B3 is 0.474 enrichment R; for B4 it is 0.743 enrichment R.
For the molecule B5, the binding signal worked out at 1.05 enrichment R.
The figure for B6 is 2.38 enrichment R.
Take B7: the binding signal was 1.44 enrichment R.
Molecule B8 yielded a binding signal of 1.35 enrichment R.
B9 yielded a binding signal of 1.28 enrichment R.
B10 yielded a binding signal of 1.04 enrichment R.
Then B11, with 1.52 enrichment R; and B12, with 1.42 enrichment R.
Then B13, with 1.8 enrichment R.
Then B14, with 0.311 enrichment R.
As to B15, the binding signal was 0.722 enrichment R.
The figure for B16 is 0.755 enrichment R; for B17 it is 0.755 enrichment R.
Then B18, with 1.22 enrichment R; and B19, with 0.934 enrichment R.
Then B20, with 1.37 enrichment R; and B21, with 0.8 enrichment R; and B22, with 0.833 enrichment R.
